PubChem BioAssay AID894 (National Center for Advancing Translational Sciences (NCATS), 2007)
About 6,500 (4.3%) of roughly 150,000 compounds were called active. The shares of active, inactive and inconclusive entries below differ from those in the screen. Calls come from the whole dose curve; as a rule, active = well fitted inhibition curve with a large enough effect (not every such curve was filed as active); inconclusive = small, poorly fitted or top-dose-only effect, or another doubt; inactive = no such curve, though single readings can be large or run the other way. A potency beside an inconclusive call is a rough fit, not a confirmed value.

What follows are molecules tested against 15-hydroxyprostaglandin dehydrogenase [NAD(+)] (Homo sapiens) (UniProt P15428) (assay: qHTS Assay for Inhibitors of HPGD (15-Hydroxyprostaglandin Dehydrogenase)). Conditions: purified HPGD, NADH fluorescence kinetic, PGE2 substrate; activity change, negative = inhibition: stronger effect = lower value.
How it was run: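 NADH formation kinetics: reaction with 30 uM PGE2 and 1 mM NAD+ (final), 20 nM enzyme, Tris-HCl pH 8 with Tween 20, after 15 min compound preincubation at room temperature. Fluorescence change, last versus first of five reads.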
% is set by controls: 0 for no effect and ±100 for the full control effect; potency is the fitted concentration of half-maximal effect; tags give direction and shape of the fitted curve.

Sequence of UniProt P15428 (P15428 whole entry, looked up): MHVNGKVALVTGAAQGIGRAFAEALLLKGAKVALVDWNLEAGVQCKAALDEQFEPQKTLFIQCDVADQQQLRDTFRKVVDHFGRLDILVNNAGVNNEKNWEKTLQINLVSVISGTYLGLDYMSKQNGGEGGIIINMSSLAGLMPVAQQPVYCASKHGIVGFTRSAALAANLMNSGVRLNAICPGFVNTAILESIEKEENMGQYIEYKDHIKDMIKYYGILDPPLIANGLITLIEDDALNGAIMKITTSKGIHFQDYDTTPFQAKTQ

Potency, inconclusive:
CCN(CC)C(=O)CSc1ncnc2c(-c3cccs3)nsc12 31.6 µM [inhibitor, single point]
Cc1ccccc1NC(=O)Cc1ccccc1 20 µM [inhibitor, partial curve]
COC(=O)[C@@H]1[C@@H](C#N)C2(c3ccccc3-c3ccccc32)N(c2ccc(Cl)cc2)N1C#N 31.6 µM [inhibitor, partial curve, poor fit]
CC/C(=C\C(=O)c1ccncc1)Nc1ccc(O)cc1 20 µM [inhibitor, partial curve]
Cc1ccc(C(=O)Nc2oc(-c3ccccc3)cc2C#N)cc1 25.1 µM [inhibitor, partial curve]
CCC(C)C(=O)Nc1nc(C)c(-c2csc(Nc3cc(Cl)ccc3OC)n2)s1 (configuration not stated) 31.6 µM [inhibitor, partial curve]
Cc1cc2c3c(ccc(C)c3n1)N=CN2c1ccccc1 28.2 µM [inhibitor, partial curve]
COC(=O)c1cc2ccccc2c(=O)s1 17.8 µM [inhibitor, partial curve]
CCCSc1nc(C)c2cc(C)cc(C)c2n1 22.4 µM [inhibitor, partial curve]
COc1ccc(-c2coc3cc(O)ccc3c2=O)c(OC)c1 31.6 µM [inhibitor, partial curve]
CC1=C(C(=O)OC(C)C)C(c2cccnc2)C2=C(CC(C)(C)CC2=O)N1 (configuration not stated) 25.1 µM [inhibitor, partial curve]
O=C(Cc1ccc(Cl)cc1)Nc1ccc(-c2cc3ccccc3oc2=O)c(Cl)c1 28.2 µM [inhibitor, partial curve]
Cc1ccc(C)c2[nH]c(=O)c(CCNC(=O)c3cccs3)cc12 31.6 µM [inhibitor, single point]
CCN(CC)Cc1c[nH]c2c(C(=O)OC)cccc12 28.2 µM [inhibitor, single point]
c1ccc2c(N3CCCCC3)nnc(N3CCCCC3)c2c1 15.8 µM [inhibitor, partial curve]
Cc1ccc(S(=O)(=O)c2c(N)n(Cc3ccco3)c3nc4ccccc4nc23)cc1C 25.1 µM [inhibitor, partial curve]
O=C(N/N=C/c1cccs1)c1cccc2cc[nH]c12 12.6 µM [inhibitor, partial curve]
COc1ccc(C)cc1NC(=O)c1nnn(CCc2ccccc2)c1N 31.6 µM [inhibitor, single point]
COCCOC(=O)C1=C(C)N=c2s/c(=C\c3cccs3)c(=O)n2C1c1cccs1 (configuration not stated) 31.6 µM [inhibitor, single point]
NC(=O)/C=C\c1cn(-c2ccccc2)nc1-c1ccc2c(c1)OCCO2 22.4 µM [inhibitor, partial curve]
CCN(C(=O)c1ccco1)c1nnc(-c2ccc(OC)cc2)s1 35.5 µM [inhibitor, single point]
CCOC(=O)C(Oc1ccc2c(-c3ccccc3)cc(=O)oc2c1C)c1ccccc1 (configuration not stated) 28.2 µM [inhibitor, partial curve]
C/C(N)=C(/C#N)C(=O)CSc1n[nH]c(-c2ccccc2Br)n1 39.8 µM [inhibitor, partial curve]
CN1C(=O)SC(Nc2ccccc2C(=O)O)C1=O (configuration not stated) 28.2 µM [inhibitor, partial curve]
CCCc1cc(C(=O)NCC(C)C)no1 20 µM [inhibitor, partial curve]
CSc1ccc(C2C(C#N)=C(N)Oc3c2ccc(=O)c2c(C)oc(C)c32)cc1 (configuration not stated) 28.2 µM [inhibitor, partial curve, poor fit]
COc1ccc2nc(SCCOC(=O)Nc3ccc(Cl)cc3)nc(C)c2c1 28.2 µM [inhibitor, partial curve]
O=C(O)c1ccc2c(c1)-c1nc3ccccc3n1C2=O 28.2 µM [inhibitor, partial curve]
Cc1ccc(-c2ccc(C(=O)NCc3ccc(Cl)cc3)o2)c2ccccc12 25.1 µM [inhibitor, partial curve]
O=C(NCC1CC1)c1ccc(Nc2nc3ccc(Br)cc3[nH]2)cc1 28.2 µM [inhibitor, partial curve]
Cc1sc2ncnc(SCC(=O)NC3CC3)c2c1C 11.2 µM [inhibitor, partial curve, poor fit]
C=CCNC(=O)c1onc(CSc2cccc3ccccc23)c1C(=O)O 28.2 µM [inhibitor, single point]
Cc1ccsc1-c1nc(CSCC(=O)NCCN2CCCC2)c(C)o1 31.6 µM [inhibitor, partial curve]
O=c1c2ccccc2[nH]c2ccccc12 35.5 µM [inhibitor, partial curve]
CC1CCCC(NC(=O)COC(=O)c2ccc(N(C)C)cc2)C1C (configuration not stated) 17.8 µM [inhibitor, partial curve]
CCc1nc(Nc2ccc(OC)c(OC)c2)c2nnn(Cc3ccccc3Cl)c2n1 35.5 µM [inhibitor, partial curve]
Fc1cccc(Cl)c1Cn1nnc(-c2ccc(N3CCOCC3)cc2)n1 39.8 µM [inhibitor, partial curve]
CSc1ccc(C(=S)N2CCN(Cc3ccccc3)CC2)cc1 25.1 µM [inhibitor, single point]
CCN(CC)c1ccc(/C=C(/C#N)c2nc3ccc(C)cc3[nH]2)c(OC(C)C)c1 31.6 µM [inhibitor, partial curve, poor fit]
Clc1ccc(Nc2nc3ccccc3n3nnnc23)cc1 35.5 µM [inhibitor, partial curve]
COc1cc(NC(=O)c2ccc3c(c2)OCO3)ccc1NC(=O)c1ccco1 39.8 µM [inhibitor, partial curve]
Cc1c(SCCO)c(=O)[nH]c2cc3c(cc12)OCO3 25.1 µM [inhibitor, partial curve]
C/C=C(\C)CN1CCN(c2cccc(C)c2C)CC1 35.5 µM [inhibitor, single point]
Cc1ccc(-c2cc(C(=O)n3cnc4ccccc43)c3ccccc3n2)cc1C 31.6 µM [inhibitor, partial curve]

Potency, active:
COc1ccc(NC(=O)CSc2ccccn2)cc1 25.1 µM
CNc1sc(C(=O)c2cccs2)c(N)c1-c1nc2ccccc2s1 15.8 µM
COc1cc(/C=C2\S/C(=N/S(=O)(=O)c3ccc(C)cc3)NC2=O)c([N+](=O)[O-])cc1OC 7.08 µM
c1coc(-c2nnc3sc(C4CCCCC4)nn23)c1 25.1 µM
CCCCCCC(=O)N(O)C1CC(=O)N(c2ccc(C)cc2)C1=O (configuration not stated) 7.94 µM
CC1CCN(S(=O)(=O)c2ccc(NC(=O)CSc3ncccc3C(=O)O)cc2)CC1 14.1 µM
COc1ccc(C(=O)NC(=S)Nc2ccc(N3CCOCC3)c(Cl)c2)cc1[N+](=O)[O-] 8.91 µM
CCCC(=O)Nc1ccc(C(=O)NNC(=O)c2ccccc2Br)cc1 28.2 µM
COC(=O)c1ccc(-n2nnnc2SC)cc1 12.6 µM
O=C1c2ccccc2C(O)N1Cc1ccc2c(c1)OCO2 (configuration not stated) 15.8 µM
Cc1ccccc1C(=O)O/N=C(\N)c1cccc([N+](=O)[O-])c1 2.82 µM
COc1ccc(C2C(C#N)=C(N)SC(N)=C2C#N)cc1OC 15.8 µM
Cc1cc(OCC(=O)N2CCCC2)cc(C)c1Cl 11.2 µM

Activity change, negative = inhibition, inactive:
CCOC(=O)Cn1c(=O)oc2cc(S(=O)(=O)NCCc3ccc(OCC)c(OCC)c3)ccc21 -5.74%
CC(=O)c1sc(N/N=C\c2ccc(Br)cc2)nc1C -5.12%
CCOC(=O)c1ccc(NC=C2C(=O)OC3(CCCCC3)OC2=O)cc1 -14%
Cc1c(NS(C)(=O)=O)c(=O)n(-c2ccccc2)n1C -4.89%
CCOc1ccc(CCNC(=O)CCN2C(=O)COc3ccccc32)cc1OCC -4.62%
COc1ccc(-n2nnnc2-c2nc3ccccc3s2)cc1 -14.9%
CCCN1C(=O)SC(CC(=O)Nc2cccc3ccccc23)C1=O (configuration not stated) -4.59%
CCn1c(SCC(=O)Nc2ccc(C(C)=O)cc2)nc2ccccc21 -23%
C=CCn1c(SCC(=O)Nc2ccccc2)nc2scc(-c3cccs3)c2c1=O -18.1%
COc1ccc(S(=O)(=O)Nc2cc(C)c(O)cc2C(C)C)cc1 -17.8%
COc1ccc(CNC(=O)C/C(C)=N/NC(=O)Cc2ccc(OC)cc2)cc1 2.54%
O=C(NCc1cccs1)C1CCCN(c2nc3ccccc3o2)C1 (configuration not stated) -13.6%
CCNC(=S)Nc1ccc(OCC)cc1 -0.351%
Cc1c(Cl)c([N+](=O)[O-])nn1CC(=O)NC(C)C1CC2CCC1C2 (configuration not stated) -6.43%
Cc1cc(Nc2ccc(Cl)cc2)n(-c2cccc(Cl)c2)n1 -16.7%
